The source gives no read counts; variants with many changes may rest on few reads.
B1: CPEB3 Ribozyme (parent)
chain: UAACAGGGGGCCACAGCAGAAGCGUUCACGUCGCAGCCCCUGUCAGAUUCUGGUGAAUCUGCGAAUUCUGCUGUAUAUCUC

Variants of: B1
Assay: self-cleavage, relative activity (ratio to wild type); higher = more cleavage; in vitro, sequencing
Outline: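 Libraries of CPEB3 self-cleaving ribozyme mutants came from rounds of error-prone PCR and carried barcodes, which DNA sequencing matched to variants. In vitro transcription used T7 RNA polymerase at 37°C for 5 hours, with a further 15 min in DNase I before EDTA stopped the reaction; the ribozymes cleaved during both steps. The RNA was reverse transcribed with template switching and sequenced on Illumina. Relative activity is the cleaved/total read fraction of a variant divided by that of the unmutated ribozyme, averaged over three batches with at least 5 reads.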

Variant | self-cleavage
UAACAAGGGGCCACGGCAGAAGCGUUCACGUCGAAGCCCCUGUCAGAUUCUGGCGAAUCUGCGAAUUCUGCUGUAUAUCUC [G6A A15G C34A U54C] | 0.08
UAACAAGGGGCCACGGCAGAAGCGUUCACGUCGCAGCCCUUGUCGGAUUCUGGAGAAUCUGCGAAUUCUGCUGUAUAUCUC [G6A A15G C40U A45G U54A] | 0.29
UAACAAGGGGCCACGGCAGAAGCGUUCACGUCGCAGCCCUUGUCAGAUUCUGGUGAAUCUGCGAUUUCUGCUGUAUAUCUC [G6A A15G C40U A65U] | 0.39
UAACAAGGGGCCACGGCAGAAUCGUUCAUGUCGCAGCCCCAGUCAGAUUCGGGUGAAUCUGCGAAUUCUGCUGUAUAUCUC [G6A A15G G22U C29U U41A U51G] | 0.3
UAACAAGGGGCCACGGCAGAAGCGGUCACGUCGCAGCCCCUGUCAGAUCCUGGUGAAUCUGCGAAUUCUGCUGUAUAUCUC [G6A A15G U25G U49C] | 0.44
UAACAAGGGGCCACGGCAGAAGCGUACACGUCGCAGCCCCGGUCAGAUUCUGGUGAAUCUGCGGAUUCUGCUGUAUAACUC [G6A A15G U26A U41G A64G U78A] | 0.14
UAACAAGGGGCCACGGCAGAAGCGUCCACGUCGCAGCCCCUGUCAGACUCUGGUGAACCUGCGAAUUCUGCUGUAUAUCUC [G6A A15G U26C U48C U58C] | 0.05
UAACAAGGGGCCACGGCAGAAGCGUCCACGUCGCAGCCCCUGUCAGAUCCUGGUGAAUCUGCGAACUCUGCUGUAUAUCUC [G6A A15G U26C U49C U66C] | 0.34
UAACAAGGGGCCACGGCAGAAGCGUUCACGACGCAGCCCCUGUCAGAUUCUGGUGAAUCUGCGAAUUCUGCCGUAUAUCCC [G6A A15G U31A U72C U80C] | 0.09
UAACAAGGGGCCACGGCAGAAGCGUUCACGUCGCAGCCCCUGUCAGACUCUGGUGAAUCUGCGAAUUCUGCUGUAUAUCUC [G6A A15G U48C] | 0.08
UAACAAGGGGCCACGGCAGAAGCGUUCACGUCGCAGCCCCUGUCAGAUUCUGGUGAAACUGCGAAUUCUGCUGUGUAUCUC [G6A A15G U58A A75G] | 0.14
UAACAAGGGGCCACGGCAGAAGCGUUCACGUCGCAGCCCCUGUCAGAUUCUGGUGAAUCCGCGAAUUCUGCUGUAUAUCUC [G6A A15G U60C] | 0.22
UAACAAGGGGCCACGGCAGAAGCGUUCACGUCGCAGCCCCUGUCAGAUUCUGGUGAAUCCGCGAACUCUGCUGUAUAUCUC [G6A A15G U60C U66C] | 0.16
UAACAAGGGGCCACGGCAGAAGCGUUCACGUCGCAGCCCCUGUCAGAUUCUGGUGAAUCUGCGAAUUCUGCUGUAUAACUC [G6A A15G U78A] | 0.45
UAACAAGGGGCCACUGCAGAGGCGUUCACGUCGCAGCCCCUAUCAGACUCUGGUGAGUCUGCGAAUUCUGCUGUAUAUCUC [G6A A15U A21G G42A U48C A57G] | 0.04
UAACAAGGGGCCACUGCAGAAGCGUUCCCGUCGCAGCCCCUGUCAGAUUCUGGUGAAUCUGCGAAUUCUGCUGUAUAUCAC [G6A A15U A28C U80A] | 0.23
UAACAAGGGGCCACUGCAGAAGCGUUCACGUCGCGGCCCCUGUCCGACUCUGGUGUAUCUGCGAAUUCUGCUGUAUAUCUC [G6A A15U A35G A45C U48C A56U] | 0.06

Variant | self-cleavage
UAACAAGGGGCCACUGCAGAAGCGCUUACGUCGCAGCCCCUGUCAGAUUCUGGUGAAUCUGCGAAUUCUGCUGUAUGUCUC [G6A A15U U25C C27U A77G] | 0.19
UAACAAGGGGCCACUGCAGAAGCGCUCACGUCGCAGCCCCUGUCAGAUUCUGGGGAAUCUGCGAAUUCUGCCGUAUAUCUC [G6A A15U U25C U54G U72C] | 0.2
UAACAAGGGGCCACUGCAGAAGCGUACACGUCGCAGCCCCUGUCAGAUUCUGGUGAAUCUGCGAAUUCUGCUGUAUAUCUC [G6A A15U U26A] | 0.31
UAACAAGGGGCCACUGCAGAAGCGUACACGUCGCAGCCCCUGCCAGAUUCUGGUGAAUCCGCGAAUUCUGCUGUAUAUCUC [G6A A15U U26A U43C U60C] | 0.05
UAACAAGGGGCCACUGCAGAAGCGUUCACGUCGCAGCCCCAGUCAGAUCCUGGUGAAACUGCGAAUUCUGCUGUAUAUCUC [G6A A15U U41A U49C U58A] | 0.25
UAACAAGGGGCCACUGCAGAAGCGUUCACGUCGCAGCCCCUGCCAGAUUCUGGUGAAUCUGCGAAUUCUGCUAUAAAUCUC [G6A A15U U43C G73A U76A] | 0.52
UAACAAGGGGCCACUGCAGAAGCGUUCACGUCGCAGCCCCUGUCAGAUUCUGGUGAAUCCGCGAAUUCUGCUGUAUAUCUC [G6A A15U U60C] | 0.24
UAACAAGGGGCCACUGCAGAAGCGUUCACGUCGCAGCCCCUGUCAGAUUCUGGUGAAUCUGCGAAUGCUGCUGUAUGUCUC [G6A A15U U67G A77G] | 0.12
UAACAAGGGGCCACUGCAGAAGCGUUCACGUCGCAGCCCCUGUCAGAUUCUGGUGAAUCUGCGAAUUCCGCUGUGUAUCUC [G6A A15U U69C A75G] | 0.21
UAACAAGGGGCCACUGCAGAAGCGUUCACGUCGCAGCCCCUGUCAGAUUCUGGUGAAUCUGCGAAUUCUGCCGUAUAUCUC [G6A A15U U72C] | 0.23
UAACAAGGGGCCACAGCCGAAGCGUUCACGUCGCUGCCCCUGUCGGAAUCCGGUGAAUCUGCGAAUUCUGCUGUAUAUCUC [G6A A18C A35U A45G U48A U51C] | 0.06
UAACAAGGGGCCACAGCGGACGCGUUCACGACGCAGCCCCUGUCAGAUUCCGGUGAAUCUGCGAAUUCUGCUGUAUAUCUC [G6A A18G A21C U31A U51C] | 0.29
UAACAAGGGGCCACAGCGGAAGCGUUCACGUCGCUGCCCCUGUCAGAUUCUGGUGAAUCUGCGAAUUCUGCUGUGUAUCUC [G6A A18G A35U A75G] | 0.15
UAACAAGGGGCCACAGCGGAAGCGUUCACGUCGCUGCCCCUGUCAGAUUCUGGUGAAUCCGCGAAUUCUGCUGUAUAUCUC [G6A A18G A35U U60C] | 0.07
UAACAAGGGGCCACAGCGGAAGCGUUCACGUCGCAGCCCCUGUCGGAUUCUGGUGAAUCUGCGAAUUCUGCUGUAUAUCUC [G6A A18G A45G] | 0.05
UAACAAGGGGCCACAGCGGAAGCGUUCACGUCGCAGCCCCUGUCUGAUUCUGGCGAAUCUGCGAAUUCUGCUGUAUAUCUC [G6A A18G A45U U54C] | 0.3
UAACAAGGGGCCACAGCGGAAGCGUUCACGUCGCAGCCCCUGUCAGAUUCUGGUGUAUCUGCGAAUUCUGCUGUAUAUCUC [G6A A18G A56U] | 0.04

Source: the RNAGym collection of RNA variant scans (doi:10.1093/nar/gkz1192)
